PubChem BioAssay AID504333 (National Center for Advancing Translational Sciences (NCATS), 2011)
Screen size: about 360,000 compounds; about 16,000 (4.4%) were called active. Inconclusive means that the source gave no clear call. Such entries were picked first, then a sample of the others. The call rests on the fitted dose curve; in most records, active means well fitted inhibition curve with a large enough effect; inconclusive means small, poorly fitted or top-dose-only effect; inactive means no such curve, though single readings can be large or run the other way. A potency beside an inconclusive call is a rough fit, not a confirmed value.

Each molecule was assayed against Bromodomain adjacent to zinc finger domain protein 2B (Homo sapiens) (UniProt Q9UIF8) (assay: qHTS Assay for Inhibitors of BAZ2B). Conditions: AlphaScreen BAZ2B-H3K14Ac peptide displacement; series mostly up to 114 µM.
Procedure, shortened: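 In this displacement format the biotinylated H3(5-23) peptide acetylated at Lys14 serves as ligand at 50 nM, with BAZ2B at 50 nM in PBS pH 7.4 containing 0.01% Tween-20. Donor and acceptor beads are 10 ug/mL final.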
Further: nearly all actives have a fitted effect of over 60% in size.
Potency means the concentration at half of the fitted maximal effect; tags describe the fitted curve by direction and shape.

Sequence of UniProt Q9UIF8 (Q9UIF8 whole entry, looked up, the tested form may be a part): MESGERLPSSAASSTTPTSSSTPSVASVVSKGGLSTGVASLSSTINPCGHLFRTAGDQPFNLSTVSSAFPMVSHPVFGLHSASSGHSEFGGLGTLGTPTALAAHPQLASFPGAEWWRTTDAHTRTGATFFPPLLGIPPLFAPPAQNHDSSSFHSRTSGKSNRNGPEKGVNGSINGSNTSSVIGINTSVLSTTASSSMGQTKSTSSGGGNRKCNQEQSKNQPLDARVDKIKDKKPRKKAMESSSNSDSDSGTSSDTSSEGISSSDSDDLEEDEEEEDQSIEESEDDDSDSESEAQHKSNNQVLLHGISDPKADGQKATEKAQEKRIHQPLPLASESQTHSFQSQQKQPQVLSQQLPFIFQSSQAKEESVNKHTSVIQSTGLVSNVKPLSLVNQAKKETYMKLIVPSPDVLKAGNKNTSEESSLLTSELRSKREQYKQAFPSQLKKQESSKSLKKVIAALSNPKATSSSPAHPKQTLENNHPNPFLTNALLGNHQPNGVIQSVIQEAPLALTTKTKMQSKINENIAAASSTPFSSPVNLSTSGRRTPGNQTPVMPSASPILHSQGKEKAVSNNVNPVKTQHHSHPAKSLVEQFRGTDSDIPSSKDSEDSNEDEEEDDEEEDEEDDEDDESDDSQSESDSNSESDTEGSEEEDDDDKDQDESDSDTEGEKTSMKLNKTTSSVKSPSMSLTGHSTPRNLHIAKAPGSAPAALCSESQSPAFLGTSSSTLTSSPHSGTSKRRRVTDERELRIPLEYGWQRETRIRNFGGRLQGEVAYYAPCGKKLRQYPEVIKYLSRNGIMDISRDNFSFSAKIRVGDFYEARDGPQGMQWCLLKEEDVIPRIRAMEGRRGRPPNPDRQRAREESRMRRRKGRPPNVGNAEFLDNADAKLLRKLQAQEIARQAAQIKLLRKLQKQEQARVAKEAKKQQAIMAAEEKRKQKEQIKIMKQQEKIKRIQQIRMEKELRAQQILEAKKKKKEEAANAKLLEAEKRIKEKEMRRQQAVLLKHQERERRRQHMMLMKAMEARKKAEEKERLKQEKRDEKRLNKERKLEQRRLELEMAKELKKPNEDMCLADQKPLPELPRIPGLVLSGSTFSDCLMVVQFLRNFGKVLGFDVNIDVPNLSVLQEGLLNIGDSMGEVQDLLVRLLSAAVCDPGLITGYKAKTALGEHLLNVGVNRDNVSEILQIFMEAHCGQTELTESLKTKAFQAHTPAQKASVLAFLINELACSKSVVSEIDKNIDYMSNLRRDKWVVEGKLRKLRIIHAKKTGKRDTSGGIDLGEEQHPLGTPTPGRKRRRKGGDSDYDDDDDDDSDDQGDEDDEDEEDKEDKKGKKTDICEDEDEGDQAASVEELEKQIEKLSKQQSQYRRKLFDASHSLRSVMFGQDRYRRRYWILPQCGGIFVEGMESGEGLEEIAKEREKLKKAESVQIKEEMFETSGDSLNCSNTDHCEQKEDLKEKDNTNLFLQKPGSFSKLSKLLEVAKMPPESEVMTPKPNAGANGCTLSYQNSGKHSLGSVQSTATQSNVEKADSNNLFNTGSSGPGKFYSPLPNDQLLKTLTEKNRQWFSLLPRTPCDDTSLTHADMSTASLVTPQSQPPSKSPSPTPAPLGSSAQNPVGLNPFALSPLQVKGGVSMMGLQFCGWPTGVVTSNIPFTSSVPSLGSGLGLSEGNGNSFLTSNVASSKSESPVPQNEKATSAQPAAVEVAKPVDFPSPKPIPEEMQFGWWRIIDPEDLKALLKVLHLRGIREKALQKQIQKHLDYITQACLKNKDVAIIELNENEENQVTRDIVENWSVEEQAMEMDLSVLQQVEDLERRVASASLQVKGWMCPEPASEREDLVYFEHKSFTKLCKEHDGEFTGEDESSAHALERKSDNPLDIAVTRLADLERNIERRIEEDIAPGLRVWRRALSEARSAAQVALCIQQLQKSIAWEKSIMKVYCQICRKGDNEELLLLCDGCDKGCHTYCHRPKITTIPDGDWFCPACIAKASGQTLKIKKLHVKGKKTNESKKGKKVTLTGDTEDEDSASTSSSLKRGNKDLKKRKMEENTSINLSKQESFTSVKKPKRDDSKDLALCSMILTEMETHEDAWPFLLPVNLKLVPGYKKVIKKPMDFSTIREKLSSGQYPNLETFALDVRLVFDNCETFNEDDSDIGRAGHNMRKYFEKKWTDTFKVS

SMILES | Potency
NC(=S)n1[nH]c(-c2ccc([N+](=O)[O-])cc2)c(N=Nc2ccc(Cl)cc2)c1=O | active: 5.62 µM
COc1cc(Cl)c(NS(=O)(=O)c2ccc(-c3ccc(=O)[nH]n3)o2)c(OC)c1 | inconclusive: 79.4 µM [inhibitor, single point]
CCOCc1cnc(C)nc1NCC(=O)c1c(C)n(C)c2ccc(OC)cc12 | active: 50.1 µM
O=C(Cc1csc(-c2ccccc2)n1)NCc1ccco1 | inconclusive: 89.1 µM [inhibitor, single point]
Cc1ccc([N+](=O)[O-])cc1S(=O)(=O)N1CCCC1 | inactive
CC(C)Cc1cc(C(=O)O)n[nH]1 | active: 50.1 µM
COc1ccc(CCn2c3c(c(=O)[nH]c2=O)C(NC(=O)c2ccccc2OC)(C(F)(F)F)C(=O)N3)cc1OC (configuration not stated) | inactive
N#CC1=C(N)NC(SCC(=O)c2ccccc2)=C(C#N)C12CCCC2 | inconclusive: 44.7 µM [inhibitor, partial curve]
COc1cc(NC(=O)c2ccnc(N)c2)cc(C(=O)Nc2cccc(C(F)(F)F)c2)c1 | active: 50.1 µM
C/C(=N/NS(=O)(=O)c1ccc(Br)cc1)c1c[nH]c2ccccc12 | inconclusive: 89.1 µM [inhibitor, single point]
COc1cccc(/C=N/Nc2nnc3c(n2)[nH]c2ccccc23)c1OC | inactive
Cc1ccc(/C=N/Nc2nc3ccccc3[nH]2)s1 | inconclusive: 39.8 µM [inhibitor, partial curve]
CCN(CC)S(=O)(=O)c1ccc2c(c1)nc(CCC(=O)Nc1ccc(N3CCOCC3)cc1)n2C | inactive
Cc1cc(O)cc2c(=O)c3ccccc3sc12 | inactive
C/C(=N\Nc1ccc([N+](=O)[O-])cc1[N+](=O)[O-])c1cccnc1 | inconclusive: 50.1 µM [inhibitor, partial curve]
CC1CCCN(CCCCOc2cccc(Br)c2)C1 (configuration not stated) | active: 50.1 µM
CCc1ccc(NC(=O)C(=O)NCC(c2cccnc2)N2CCN(C)CC2)cc1 (configuration not stated) | active: 44.7 µM
Cc1nn(-c2ccccc2)c(N)c1N=Nc1ccc2ccccc2c1 | active: 12.6 µM
S=c1[nH]nc(-c2ccc(Cl)cc2)n1-c1ccc(Cl)cc1 | inconclusive: 89.1 µM [inhibitor, single point]
COc1ccc(N2CCN(C(=O)c3ccc(NC(=O)C4=CSCCO4)cc3)CC2)cc1 | inconclusive: 50.1 µM [inhibitor, partial curve]
CC(=O)c1cccc(N=Nc2c(C)[nH]c3ccccc23)c1 | active: 35.5 µM
O=C(Nc1ccc2oc(-c3cccnc3)nc2c1)c1ccc(-c2ccccc2)o1 | inconclusive: 79.4 µM [inhibitor, single point]
Cc1ccc(S(=O)(=O)N2CCC(C(=O)OCC(=O)N(CCC#N)c3ccc(F)cc3)CC2)cc1C | inactive
CC(=O)c1cccc(NC(=O)c2cc(-c3ccncc3)nc3ccccc23)c1 | inactive
COc1cc(/C=N/NC(=O)CN(Cc2ccco2)S(=O)(=O)c2ccccc2)ccc1O | inactive
NCCCC[C@H](NC(=O)C1CCNCC1)c1nnc([C@@H](N)CO)o1 | inconclusive: 25.1 µM [inhibitor, full curve]

SMILES | Potency
Cc1cccc(S(=O)Cc2ccc(C(=O)N3CCN(C(=O)c4ccco4)CC3)o2)c1 (configuration not stated) | inactive
COc1cc(O)ccc1-c1nc2ccc(Br)cn2c1Nc1ccccc1C | inconclusive: 17.8 µM [inhibitor, full curve, poor fit]
COc1cccc(CNCCc2c[nH]c3ccccc23)c1OCc1ccccc1F | inconclusive: 44.7 µM [inhibitor, partial curve]
Cc1nnc(NN2CCOCC2)[nH]c1=O | inactive
Cc1nnc(SCC(=O)Nc2sc3c(c2C(N)=O)CCC(C)C3)[nH]c1=O (configuration not stated) | inactive
COc1ccc(OC)c(/C=N/NC(=O)c2cc[n+](CC(=O)c3ccccc3)cc2)c1 | inactive
COc1ccc(C(=O)c2cc([N+](=O)[O-])ccc2N2CCCC2)cc1 | inconclusive: 28.2 µM [inhibitor, partial curve]
O=C(Nc1cc(Cl)ccc1O)c1snnc1-c1ccccc1 | inconclusive: 70.8 µM [inhibitor, single point]
CCOC(=O)C1CCCCN1Cc1ccccc1C(F)(F)F (configuration not stated) | inactive
Cc1ccccc1CS(=O)(=O)c1cn(CC(=O)N2CCOCC2)c2ccccc12 | inconclusive: 79.4 µM [inhibitor, single point]
COc1ccc(NC2=C(C(C)=O)C(c3ccc4c(c3)OCO4)C(C(C)=O)C(C)(O)C2)cc1 (configuration not stated) | inconclusive: 89.1 µM [inhibitor, single point]
CCc1ccc(NCc2cc3ccc(OC)cc3n(CC(=O)Nc3ccccc3OC)c2=O)cc1 | inconclusive: 39.8 µM [inhibitor, partial curve]
Cn1nccc1C(=O)OCC(=O)Nc1ccc(S(N)(=O)=O)cc1 | inactive
COc1cc(OC)c(CN2CCC(Cc3ccccc3)CC2)cc1Br | active: 56.2 µM
Cc1ccn2c(Nc3ccc4c(c3)OCO4)c(-c3ccc(C)o3)nc2c1 | inactive
CCn1cc(CN2CCc3c([nH]c4ccccc34)C2c2ccc(F)c(OC)c2)c(C)n1 (configuration not stated) | active: 22.4 µM
COc1ncc(C2=CC(=O)CC(C)(C)C2)cn1 | inactive
CN1CCN(c2nc3c(c(=O)[nH]c(=O)n3C)n2Cc2ccccc2)CC1 | inconclusive: 89.1 µM [inhibitor, single point]
Cc1cc(Cl)ccc1NC(=O)CS(=O)(=O)c1cccc2nsnc12 | inactive
Cc1ccc(-c2cc(C(=O)O)c3cc(Br)ccc3n2)o1 | active: 56.2 µM
N#CC1=C(S)N(c2ccccc2)C(c2ccc(-c3cc(Cl)ccc3Cl)o2)NC1=O (configuration not stated) | active: 50.1 µM
CC1(C)CC(=O)C2=C(C1)NC1=C(C(=O)c3ccccc31)C2c1cccnc1 (configuration not stated) | inconclusive: 50.1 µM [inhibitor, partial curve]
CCOC(=O)C1CCN(c2nc3c(S(=O)(=O)c4ccc(CC)cc4)nnn3c3ccc(Cl)cc23)CC1 | inactive
O=C(CN1C(=O)S/C(=C\c2ccc(-c3cc(C(=O)O)ccc3Cl)o2)C1=O)Nc1ccc2c(c1)OCO2 | active: 8.91 µM
O=C(Cc1csc(NC(=O)c2ccccc2)n1)NO | inconclusive: 79.4 µM [inhibitor, single point]
FC(F)(F)Sc1ccc(NC(=S)NCc2ccccc2)cc1 | inactive

SMILES | Potency
CCOC(=O)C1CCCN(C(=O)c2ccc(C)c(NC(=O)c3nsc4ccccc34)c2)C1 (configuration not stated) | inactive
Cc1ccc(S(=O)(=O)NCc2ccccc2)cc1C(=O)NCC1CCCO1 (configuration not stated) | inactive
Cc1cc(C(=O)OCC(=O)Nc2ccccc2C#N)c(C)o1 | inactive
O=C1CCc2cc(S(=O)(=O)N3CCN(Cc4ccc5c(c4)OCO5)CC3)ccc2N1 | inconclusive: 56.2 µM [inhibitor, partial curve]
COC(=O)c1c(NC(=O)c2ccoc2C)sc2c1CCC2 | inconclusive: 50.1 µM [inhibitor, partial curve]
CCn1c2ccc(F)cc2c2nnc(NN)nc21 | inconclusive: 31.6 µM [inhibitor, partial curve, poor fit]
O=C(Nc1ccccc1F)NC1CCCCCCC1 | inactive
O=C(O)/C=C\C(=O)Nc1ccc(N2CCN(c3ccc(Cl)cc3)CC2)cc1 | inconclusive: 22.4 µM [inhibitor, partial curve]
BrC(=C\c1ccccc1)/C=N/N1CCN(c2ccccc2)CC1 | inconclusive: 39.8 µM [inhibitor, partial curve]
CCN1CC2=C(OC(N)=C(C#N)C2c2cccs2)/C(=C/c2cccs2)C1 (configuration not stated) | active: 31.6 µM
O=C(CSc1n[nH]c(-c2ccccn2)n1)Nc1ccc(Cl)cc1 | active: 5.01 µM
CCN1C(=O)[C@@H]2[C@@H](c3ccc(-c4ccc(C(C)=O)cc4)cc3)N3CCC[C@@]3(C(=O)OC)[C@@H]2C1=O | inconclusive: 89.1 µM [inhibitor, single point]
CCOC(=O)c1c(C)[nH]c(C(=O)/C(C#N)=C/c2ccc(OC)c(OC)c2)c1C | inconclusive: 44.7 µM [inhibitor, partial curve]
CC1CCCCN1C(=O)Cn1cc(/C=C2/C(=O)Nc3ccccc32)c2ccccc21 (configuration not stated) | inconclusive: 12.6 µM [inhibitor, full curve, poor fit]
Cc1ccccc1CS(=O)(=O)Cc1ccc(C(=O)NC2CCCCC2)o1 | inactive
Cc1ccc(C)c(-c2ccc(=O)n(C(C)C(=O)Nc3ccccc3C(F)(F)F)n2)c1 (configuration not stated) | inactive
Nc1c(S(=O)(=O)c2ccccc2)c2nc3ccccc3nc2n1/N=C/c1cccc(O)c1 | inactive
OCCC1CN(Cc2cccc(C(F)(F)F)c2)CCN1Cc1ccccc1 (configuration not stated) | inactive
COc1ccccc1N1CCN(S(=O)(=O)c2cc(-c3cc(C)no3)ccc2C(C)C)CC1 | inconclusive: 8.91 µM [inhibitor, full curve, poor fit]
NC(=NCCc1c[nH]c2ccccc12)NC(=O)c1ccc(F)cc1 | inconclusive: 44.7 µM [inhibitor, partial curve]
CC1CCCC(N2CCN(S(=O)(=O)c3ccccc3)CC2)C1 (configuration not stated) | inconclusive: 56.2 µM [inhibitor, partial curve]
COc1cc(NC(=O)CN(C)C2CCCCC2)c(C)cc1[N+](=O)[O-] | inactive
Cc1ccc(CN2CCN(C(=O)c3ccncc3)CC2)cc1 | active: 22.4 µM
O=C(CCN1C(=O)C2C3CC(C(Br)C3Br)C2C1=O)OCC(=O)c1ccccc1 (configuration not stated) | inactive
S=C(Nc1ccccc1)N1CCc2ccccc21 | inactive
